Data: paper PMC6919601, “Identification of Plasmodium dipeptidyl aminopeptidase allosteric inhibitors by high throughput screening” (PLoS ONE, 2019)
Like-named read-outs stand apart in the source and are kept apart here.

Assays:
[1] = system: WI-38 primary lung fibroblast; settings: 10 uM; ref SMDC Assay #440; cited from earlier work
[2] = molecular target: T1, DPAP1 (Plasmodium falciparum, UniProt Q8IIJ9); experiment: biochemical; assay type: biochemical; settings: for inhibition at 10 µM: read-out: DPAP1 % Inhibition @ 10 uM; for DPAP Primary hit (Hit = 1): 10 μM HTS, 0 not defined
T1 sequence (Q8IIJ9 370-599 limits assumed): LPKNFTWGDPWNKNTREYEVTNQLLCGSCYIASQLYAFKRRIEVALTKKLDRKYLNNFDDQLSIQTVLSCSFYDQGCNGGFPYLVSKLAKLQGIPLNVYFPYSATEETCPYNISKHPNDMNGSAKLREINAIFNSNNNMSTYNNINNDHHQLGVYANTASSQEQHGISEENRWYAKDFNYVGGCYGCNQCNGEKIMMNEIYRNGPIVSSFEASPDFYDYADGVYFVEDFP
T1 sequence (Q8IIJ9 28-209 limits assumed): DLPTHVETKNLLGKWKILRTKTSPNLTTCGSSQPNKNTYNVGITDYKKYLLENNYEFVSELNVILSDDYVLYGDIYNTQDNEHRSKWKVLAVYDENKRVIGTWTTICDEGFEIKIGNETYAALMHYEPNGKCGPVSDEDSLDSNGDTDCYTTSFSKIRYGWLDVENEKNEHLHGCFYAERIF
T1 sequence (Q8IIJ9 600-700 limits assumed): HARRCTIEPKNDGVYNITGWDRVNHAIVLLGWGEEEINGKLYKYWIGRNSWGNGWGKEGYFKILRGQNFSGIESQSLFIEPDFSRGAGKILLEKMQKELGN

[3] = molecular target: T1, DPAP1; experiment: biochemical; assay type: biochemical; settings: for DPAP1 inhibition Model: COM competitive, UNC uncompetitive, P-M partial mixed, P-C partial competitive, P-NC partial non-competitive, P-U partial uncompetitive; for DPAP1 α: factor by which Km is modified at saturating inhibitor; for DPAP1 β: factor by which kcat (Vmax) is modified at saturating inhibitor; for Ki: global fit to MOI model, standard error of fit in parentheses
[4] = molecular target: T1, DPAP1; experiment: biochemical; assay type: biochemical; settings: for Emax: 0.5 h, read-out: Maximum % Inhibition DPAP1
[5] = molecular target: bovine CatC (Bos taurus, UniProt Q3ZCJ8); experiment: Dose response inhibition assay, CatC with GR-AMC substrate; settings: for Emax: 0.5 h, read-out: Maximum % Inhibition CatC, substrate at Km
Sequence of bovine CatC (Q3ZCJ8 231-394 limits assumed): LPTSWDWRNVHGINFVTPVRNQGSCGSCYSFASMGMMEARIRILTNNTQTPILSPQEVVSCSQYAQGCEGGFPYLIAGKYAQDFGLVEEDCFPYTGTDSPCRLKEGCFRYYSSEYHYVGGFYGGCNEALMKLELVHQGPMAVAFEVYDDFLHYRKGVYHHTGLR
Sequence of bovine CatC (Q3ZCJ8 25-134 limits assumed): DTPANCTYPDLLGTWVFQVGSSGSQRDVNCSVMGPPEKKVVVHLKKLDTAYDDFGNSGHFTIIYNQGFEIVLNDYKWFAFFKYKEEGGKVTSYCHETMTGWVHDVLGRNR
Sequence of bovine CatC (Q3ZCJ8 395-463 limits assumed): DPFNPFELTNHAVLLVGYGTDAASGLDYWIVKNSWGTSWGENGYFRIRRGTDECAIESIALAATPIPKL

[6] = molecular target: T2, FP3 (Plasmodium falciparum, UniProt Q8IIL0); experiment: biochemical; settings: for Emax: 0.5 h, read-out: Maximum % Inhibition FP3, substrate at Km
T2 sequence (Q8IIL0 243-492): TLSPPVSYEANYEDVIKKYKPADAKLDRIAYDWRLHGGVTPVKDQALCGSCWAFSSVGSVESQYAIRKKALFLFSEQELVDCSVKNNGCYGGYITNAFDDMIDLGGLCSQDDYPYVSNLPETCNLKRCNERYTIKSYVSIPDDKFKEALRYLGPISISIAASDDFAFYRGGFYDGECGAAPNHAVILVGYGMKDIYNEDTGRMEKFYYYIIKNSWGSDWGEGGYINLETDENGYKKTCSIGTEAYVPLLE

[7] = molecular target: T2, FP3; experiment: biochemical; assay type: biochemical; settings: for FP3 inhibition Model: COM competitive, UNC uncompetitive, P-M partial mixed, P-C partial competitive, P-NC partial non-competitive, P-U partial uncompetitive; for FP3 α: factor by which Km is modified at saturating inhibitor
[8] = molecular target: CatC (Bos taurus, UniProt Q3ZCJ8); experiment: Mechanism of inhibition studies, CatC; assay type: biochemical, bovine; settings: for CatC inhibition Model: COM competitive, UNC uncompetitive, P-M partial mixed, P-C partial competitive, P-NC partial non-competitive, P-U partial uncompetitive; for CatC α: factor by which Km is modified at saturating inhibitor
Sequence of CatC (Q3ZCJ8 231-394 limits assumed): as the sequence (Q3ZCJ8 231-394 limits assumed) above
Sequence of CatC (Q3ZCJ8 25-134 limits assumed): as the sequence (Q3ZCJ8 25-134 limits assumed) above
Sequence of CatC (Q3ZCJ8 395-463 limits assumed): as the sequence (Q3ZCJ8 395-463 limits assumed) above

[9] = system: WI-38 primary lung fibroblast; experiment: cells; set-up: Cell toxicity screen in WI-38 primary lung fibroblasts at 10 uM (SMDC assay 440); settings: Homo sapiens, sheet All cpds;, SMDC cell toxicity assay 440
[10] = system: P. falciparum; experiment: Standard 72 h parasite replication assay; assay type: cell-based, Plasmodium falciparum; settings: Plasmodium falciparum, 72h replication assay; for inhibition at 100 µM: read-out: Pf % Inh @ 100 μM; for EC50: 3 biological replicates, read-out: Pf EC50
[11] = molecular target: DPAP3 (Plasmodium falciparum, UniProt Q8I1Y2); experiment: biochemical; settings: for Emax: 0.5 h, read-out: Maximum % Inhibition DPAP3
Sequence of DPAP3 (Q8I1Y2 entry or part of it): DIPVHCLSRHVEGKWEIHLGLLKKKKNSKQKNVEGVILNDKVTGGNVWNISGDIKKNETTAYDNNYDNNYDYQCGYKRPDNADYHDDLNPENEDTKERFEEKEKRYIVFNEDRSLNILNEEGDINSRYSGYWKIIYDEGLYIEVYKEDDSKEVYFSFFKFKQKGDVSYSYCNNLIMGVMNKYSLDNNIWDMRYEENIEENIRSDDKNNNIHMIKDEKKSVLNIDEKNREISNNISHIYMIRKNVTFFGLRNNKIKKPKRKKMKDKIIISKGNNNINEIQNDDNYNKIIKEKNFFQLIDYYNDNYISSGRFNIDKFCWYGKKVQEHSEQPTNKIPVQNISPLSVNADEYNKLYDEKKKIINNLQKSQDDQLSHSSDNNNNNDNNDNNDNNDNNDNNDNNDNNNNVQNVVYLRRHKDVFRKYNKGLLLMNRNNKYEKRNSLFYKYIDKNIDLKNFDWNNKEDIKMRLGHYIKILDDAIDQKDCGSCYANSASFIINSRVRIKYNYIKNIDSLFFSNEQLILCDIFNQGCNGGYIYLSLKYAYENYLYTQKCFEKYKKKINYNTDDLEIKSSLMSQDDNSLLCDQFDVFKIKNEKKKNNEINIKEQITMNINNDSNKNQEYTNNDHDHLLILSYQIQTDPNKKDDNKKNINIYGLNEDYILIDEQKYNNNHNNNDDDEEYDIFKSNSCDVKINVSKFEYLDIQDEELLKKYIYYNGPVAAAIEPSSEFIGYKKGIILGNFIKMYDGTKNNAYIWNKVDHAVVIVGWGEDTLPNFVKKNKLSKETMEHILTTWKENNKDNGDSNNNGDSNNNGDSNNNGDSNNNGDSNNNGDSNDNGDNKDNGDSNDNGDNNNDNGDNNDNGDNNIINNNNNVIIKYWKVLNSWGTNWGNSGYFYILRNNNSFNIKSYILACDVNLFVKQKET

[12] = molecular target: T2, FP3; settings: for IC50 FP3: FP3 1 nM, Z-LR-AMC at Km (20 μM), N.I. = no inhibition
[13] = system: human foreskin fibroblast cells; experiment: Cytotoxicity assay, CellTiter-Glo; settings: 24h treatment, 4 biological replicates
[14] = 10 μM compound, parasite lysates, (PR)2Rho, 30 min end-point
[15] = VR-ACC at Km, > = inhibition at the highest concentration, no baseline reached
[16] = factor by which kcat (Vmax) is modified at saturating inhibitor

Structure (SMILES)	Cell Toxicity WI-38 primary lung fibroblast %Inhibition @ 10 uM [1] [%]	inhibition at 10 µM [2, 14] [%]	DPAP1 inhibition Model [3]	DPAP1 α [3]	DPAP1 β [3]	Ki [3] [µM]	IC50 [4] [µM]	Emax [4, 15] [%]	IC50 [5] [µM]	Emax [5] [%]	IC50 [6] [µM]	Emax [6] [%]	inhibition at 10 µM [9] [%]	inhibition at 100 µM [10] [%]	Emax [11] [%]	Tox EC50 / Cytox EC50 [13]	EC50 [10] [µM]	further results
N#CC1=C(N)SC(N)=C(C#N)C1c1ccccc1 [SMDC31843, NC1=C(C#N)C(C(=C(N)S1)C#N)c2ccccc2]	12	71	P-C	5.6 (0.7)	= 1	6.2	2.2	71	~25	> 75	5.7	100	11.6	24	100			FP3 inhibition Model [7]: uncompetitive; FP3 inhibition Model ([7]; listed as 31843): UNC; Ki ([7]; global fit to MOI model, standard error of fit in parentheses, read-out: FP3 Ki): 14.2 µM; CatC inhibition Model [8]: P-M; CatC α [8]: < 1; CatC α ([8]; listed as 31843): 0.33 (0.06); Ki ([8]; global fit to MOI model, standard error of fit in parentheses, read-out: CatC Ki): 140 µM; IC50 [11]: 30 µM
Cc1nc(SCC(=O)O)c(C#N)c(C)c1C [SMDC39848, Cc1nc(SCC(=O)O)c(C#N)c(C)c1C]	11	73					34	94	~100	> 50			10.8	13	> 50			IC50 FP3 [12]: N.I.
CC(Oc1cccc(Cl)c1)C(=O)Nc1sc2c(c1C(N)=O)CCCCC2 (stereo not shown) [SMDC106517, CC(Oc1cccc(Cl)c1)C(=O)Nc2sc3CCCCCc3c2C(=O)N]	6	61	P-M	1.3 (0.2)	0.85 (0.05)	1	5.7	67	~100	> 50	7.2	100		83	100	160 (40) μM	15	
CCc1nccn1C(=O)c1cnn2c(C(F)F)cc(-c3ccccc3)nc12 [SMDC158691, CCc1nccn1C(=O)c2cnn3c(cc(nc23)c4ccccc4)C(F)F]	5.7	76					18	88	9	91	2.5	100		88		70 (8) μM	9	
CCN(C(=O)c1ccco1)c1nc(-c2ccccc2)cs1 [SMDC168314, CCN(C(=O)c1occc1)c2nc(cs2)c3ccccc3]	13	73					200	100					12.7	35	> 50			IC50 CatC ([5]; CatC 1 nM, GR-AMC at Km (40 μM), N.I. = no inhibition): N.I.; IC50 FP3 [12]: N.I.
CN1CSC2=C(C#N)C(c3ccccc3Cl)CC(=O)N2C1 (stereo not shown) [SMDC170123, CN1CSC2=C(C#N)C(CC(=O)N2C1)c3ccccc3Cl]	5.5		P-M	4.3 (1.3)	> 1				0.12	48	0.093	80		64	11		> 100	DPAP Primary hit (Hit = 1) [2]: 1; inhibition at 10 µM [2]: 57%; DPAP1 β ([3]; listed as 170123): 1.4 (0.3); Emax [4]: 78%; Ki [7]: 3.8 µM; FP3 inhibition Model [7]: P-M; FP3 α [7]: < 1; FP3 α ([7]; listed as 170123): 0.38 (0.09); FP3 β [7, 16]: 0.23 (0.03); Selectivity towards FP3 compared to FP2 ([12]; ratio of IC50 values): more than 50 fold; Ki [8]: 0.95 µM; CatC inhibition Model [8]: P-NC; CatC α [8]: = 1; CatC β [8, 16]: 0.66 (0.03); IC50 [11]: 1 µM
COc1cccc(C2CC(=O)N3CN(CCc4sccc4C)CSC3=C2C#N)c1 (stereo not shown) [SMDC178790, COc1cccc(c1)C2CC(=O)N3CN(CCc4sccc4C)CSC3=C2C#N]	-4	57	P-C	2.7 (0.2)	= 1	0.4	0.84	60	0.33	66	0.27	92		74	18	200 (50) μM	4	DPAP Primary hit (Hit = 1) [2]: 1
